Test results as given in ChEMBL document CHEMBL4888484, “Replenishing the malaria drug discovery pipeline: Screening and hit evaluation of the MMV Hit Generation Library 1 (HGL1) against asexual blood stage Plasmodium falciparum ,using a nano luciferase reporter read-out” (2022).
About 540 (0.36%) of roughly 150,000 compounds showed an effect of 50% or more. Some of the results follow.

Each compound was assayed on Plasmodium falciparum (assay: Primary screen in NF54 nanoGlo assay, in single point, at 2uM, 72h; a lower Z score goes with more inhibition). Conditions: timepoint 72 hour.
Format: functional, Erythrocyte

Structure (SMILES) | % Inhibition | Z score
COc1ccc(C(NC(=O)CC[C@@H]2NC(=O)N(c3ccccc3)C2=O)C(C)C)cc1OC (stereo partly specified) | -10% | 1.25
CC(C)C[C@H](NC(=O)N1CCOCC1)c1cccnc1 | 2% | -0.37
Cc1nccn1[C@@H](C)CC(=O)N1CC(n2cccn2)C1 | -2% | 0.31
Cc1noc([C@@H]2CC3(CCN(C(=O)CC(C)C)CC3)CN2C)n1 | -8% | 1.01
CCCN1CCC[C@H](NC(=O)c2cn(CCc3ccccc3)cc(C(=O)O)c2=O)C1 | 0% | -0.06
O=C(c1cccc[n+]1[O-])N(Cc1cccc2ccccc12)C1CCCC1 | 11% | -1.69
Fc1cccc2c(N3CCC[C@H](N4CCOCC4)CC3)ncnc12 | -17% | 2.47
CCn1cc(S(=O)(=O)N2C[C@@H]3[C@H]4CC[C@H](CC4)[C@@H]3C2)cn1 | 2% | -0.33
CC1CCN(C(=O)Cn2cccc(S(=O)(=O)N3CCC(C)CC3)c2=O)CC1 | -1% | 0.25
O=C(CC1CCCC1)Nc1ccncc1 | -5% | 0.54
COC(=O)N1CCN(C[C@@H]2CCC[C@@H]2NC(=O)OC(C)(C)C)CC1 | 9% | -1.08
C[C@@]1(C(=O)NC2CCCCCCC2)Cn2c(ccc2-c2ccccc2)C(=O)N1Cc1ccco1 | 7% | -0.83
Cc1cc(C)nc(Oc2cccc(NC(=O)c3cc(Cl)ccc3Cl)c2)n1 | 4% | -0.53
Cc1occc1C(=O)N1CCCCCCC1 | -14% | 1.86
CN(C)C(=O)CN(C)C(=O)C1CCCCC1 | -4% | 0.45
O=C(CCC(=O)c1ccc2c(c1)OCCCO2)Nc1cccc(S(=O)(=O)N2CCOCC2)c1 | -2% | 0.43
Cc1cccn2c(CC(=O)N3CC[C@H](Cc4ccc(CO)cc4)C3)cnc12 | -6% | 0.96
Cc1cc(NC(=O)CCN2CCC[C@H]2c2nc3ccccc3s2)no1 | -21% | 2.11
Cc1ccc2nc(C3CC3)cc(C(=O)N3CC[C@@H](N)C3)c2c1 | 0% | -0.05
CCCn1nnnc1CN[C@H](c1ccccc1)C1CCC1 | -13% | 1.51
CC(C)CN(CC(F)(F)F)C(=O)COc1ccc(CC(N)=O)cc1 | -2% | 0.29

Structure (SMILES) | % Inhibition | Z score
CCCn1c(-c2cccc(C(=O)NCc3ccc(Br)cc3)c2)nc2cccnc21 | -1% | 0.12
COC(=O)Nc1ccc(C(=O)NC[C@H](C)N2CCc3ccccc32)cc1 | -13% | 2.36
CC1CCN(Cc2ccccc2CNC(=O)OCC(F)(F)F)CC1 | -3% | 0.34
CN1C(=O)CN(C(=O)[C@H]2CCOC2)c2ccccc21 | 7% | -0.81
Cc1c(C#N)c(NC(=O)CN2CCc3sccc3C2C)n(CC2CCCO2)c1C (stereo unspecified) | -37% | 4.29
O=C(CN1C(=O)CNC1=O)Nc1ccc(-c2cc3ccccc3o2)cc1 | 20% | -2.38
Cc1cnc(C(=O)N2CCCC[C@H]2C2(CN)CCC2)cc1C | -5% | 0.85
CCC1=NO[C@H](C(=O)N2CCC3(CC2)CC(=O)N(Cc2ccccc2)C3)C1 | -8% | 1.6
Cc1noc2ncnc(NC[C@@H](CO)Cc3ccc(F)c(F)c3)c12 | -16% | 1.4
CC(C(C)S(C)(=O)=O)N(C)C(=O)Cn1ncc2cccnc21 (stereo unspecified) | -15% | 1.77
O=C(Nc1nc(-c2ccccc2)cc(-c2ccc(Cl)cc2)n1)c1ccc(F)cc1 | -14% | 2.55
COC(=O)NCc1cccc(Br)c1 | -7% | 1.06
COC(=O)N1CCc2ccc(F)cc2[C@@H]1C(=O)Nc1nc2c(s1)CCCC2 | 0% | 0
O=C(c1[nH]c2ccc(F)cc2c1Cl)N1CCC(c2nc3ccccc3o2)CC1 | 23% | -2.97
Cc1nc(C)c(C(=O)Nc2ccc3c(c2)CCC(=O)N3)o1 | 5% | -0.63
O=C(O)[C@H]1CCCN1c1nccc(OCc2ccccc2)n1 | -6% | 0.71
CCc1nc(CN2C(=O)COc3cc(S(=O)(=O)N4CCCCCC4)c(Cl)cc32)no1 | 0% | -0.05
O=C(N[C@H]1CCCc2ccccc21)c1cc(N2CCOCC2)ncn1 | 6% | -1.06
Cc1nn(-c2cccc(F)c2)c(N2CCN(C(C)C)CC2)c1CN(C(=O)c1ccc(F)cc1)C(C)C | 9% | -1.18
Cc1cc(C)cc(OS(=O)(=O)CCCN2CCN(C)CC2)c1 | -1% | 0.21
C=CCOc1cccc2c1cc(C(=O)Nc1ccc(C)cc1)n2CC | -4% | 0.41

Structure (SMILES) | % Inhibition | Z score
CC1(C)N=C(N)N=C(Nc2ccccc2Cl)N1 | -18% | 2.8
Cc1ccc2c(c1)[C@@H](C)CC1(CCCCC1)N2 | -4% | 0.48
C[C@@H](C(=O)O)N(Cc1ccccc1)C(=O)c1cc(C2CC2)n(C)n1 | -12% | 2.25
Nc1cccc(C(=O)NCCc2noc(C(F)(F)F)n2)n1 | -8% | 1.33
CCN(CC)C(=O)N1CC[C@@H](c2nc(C)no2)N(C(=O)C2CCCC2)CC1 | 4% | -0.88
COc1ccccc1C1CC1C(=O)C(C#N)c1nc2ccccc2s1 (stereo unspecified) | -3% | 0.34
O=C1NCC2(CCN(C(=O)NCc3cc(-c4ccccc4F)no3)CC2)O1 | 4% | -0.61
O=C(NC1CCCC1)c1cc(S(=O)(=O)N2CCCCCC2)ccc1Cl | -4% | 0.57
Cc1cc(NC(=O)NCCc2cn[nH]c2)cs1 | 2% | -0.32
Cc1noc(CO[C@H]2CCCN(S(=O)(=O)c3cccs3)C2)n1 | -15% | 1.92
CN1CCN(S(=O)(=O)CC2(C)CCC2)CC1=O | -11% | 2.16
COCCN1CCN2C(=O)[C@H](Cc3ccccc3)N(Cc3cccc(OC)n3)C[C@H]2C1=O | -10% | 0.9
COc1ccc(C(=O)N2CCC[C@@H]2CC(=O)c2cnn(C)c2)cc1OC(F)F | -10% | 1.59
CCc1cc2n(Cc3ccc(C(=O)O)cc3)c3ccccc3[n+]2nc1CC | -27% | 3.15
CCc1ccc2nc(C)cc(C(=O)N3CCC[C@H](c4nccn4CC)C3)c2c1 | -18% | 1.69
CN(CC(F)(F)F)C(=O)Nc1cccc(F)c1 | -10% | 1.3
COc1ccc(C2(CN3C(=O)N[C@@H](CCC(=O)NC4CCCCCCC4)C3=O)CCOCC2)cc1 | -19% | 1.99
CS(=O)(=O)N1CC(CS(=O)(=O)N2CC(c3ccccc3)C2)C1 | -5% | 0.7
CCOC(=O)c1nc2ccccc2nc1N1CCCN(S(=O)(=O)c2ccccc2C#N)CC1 | -8% | 0.94
C[C@H](C#N)CNc1ncc(Br)cn1 | 35% | -1.16
CCCn1ncnc1[C@H](C)NC(=O)Nc1cc(NC(=O)COC)ccc1C | -8% | 0.83

Structure (SMILES) | % Inhibition | Z score
CO[C@H]1CCOC2(CCN(C(=O)c3ccccc3F)CC2)C1 | 35% | -0.83
COCC1(C(=O)NCCn2ccnc2)CCC1 | -8% | 1.26
Cc1cc(C)cc(-n2ncc3c(N4C[C@@H]5CC[C@H](O)[C@@H]5C4)ncnc32)c1 | -7% | 1.11
CC[C@H](C)NC(=O)N1CCC(n2cc(Cn3c(C)nc4ccccc43)nn2)CC1 | -15% | 2.07
CCN1CCN(C(=O)c2cc(S(=O)(=O)N3CCCCCC3)ccc2Cl)CC1 | -8% | 1.11
O=C(Nc1ccc(Cl)cc1)N1[C@@H](Cc2ccccc2)COC12CCN(c1ncc(C(F)(F)F)cc1Cl)CC2 | -12% | 1.74
Cc1ccc(C)n1CC(=O)NCc1nc(-c2c(F)cccc2Cl)no1 | -9% | 1.18
Cc1cc(CCC(=O)N2C3CCC2CC(n2ccnn2)C3)ccc1F (stereo unspecified) | -5% | 0.73
CC(=O)Nc1nc(C(=O)N(C)Cc2cc(C)on2)cs1 | -3% | 0.59
O=C(NC[C@H]1CCCO1)c1ccc(CN2CCN(c3ccccc3)CC2)o1 | -4% | 0.61
CNC(=O)C(C)(C)CNc1ccc(C#N)cn1 | 1% | -0.11
Cc1ccc(CCNC(=O)c2cnc3c(-c4cccc(C)c4)c(C)nn3c2C(F)(F)F)cc1 | -6% | 0.65
COC(C)(C)C(=O)N[C@@H](C)C1=CCCCC1 | 3% | -0.59
Cc1nnsc1C(=O)NC[C@H]1Cc2ccccc2CO1 | 4% | -0.44
Cn1cc(CNC(=O)c2coc(COc3ccc(F)cc3)n2)cn1 | -8% | 1.52
CC[C@H](C)c1csc(NC(=O)N(C)Cc2ncnn2C)n1 | -15% | 2.35
Cc1cccc(CN(C(=O)Cc2n[nH]c(=O)[nH]2)C(C)C)c1 | -4% | 0.59
CN1CCC(n2nc(-c3cccnc3)nc2CCc2cccnc2)CC1 | -7% | 0.68
Cn1nc(C(=O)N2CCN(c3cc(C(F)(F)F)ncn3)CC2)ccc1=O | -13% | 1.61
C=CCC(O)(CC=C)CNC(=O)c1c[nH]c(=O)[nH]c1=O | 1% | -0.08
